Reference: the supplement of paper PMC4604168 (melanoma cell lines)
The list shows a part of the results. Many values rest on one well or one pass, so single values are uncertain.

system: SkMel30; test: cell count relative to DMSO control; melanoma cells; higher = more viable cells; conditions: library dose: low library concentration; 72 h
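Note: cell number obtained by counting DAPI-stained nuclei in high-throughput microscope images with image analysis software, screen run in 1,536-well plates.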

| SMILES | cell count [%] |
| --- | --- |
| COc1cc([C@@H]2c3cc4c(cc3[C@@H](O[C@@H]3O[C@@H]5CO[C@@H](C)O[C@H]5[C@H](O)[C@H]3O)[C@H]3COC(=O)[C@H]23)OCO4)cc(OC)c1O [etoposide] + CN(NC(=O)CC(=O)NN(C)C(=S)c1ccccc1)C(=S)c1ccccc1 [STA4783] (first compound 0.02 µM, partner dose 0.006 µM) | 77.5 |
| C[C@]1(O)C[C@@H](c2nc(-c3ccc4ccc(-c5ccccc5)nc4c3)c3c(N)nccn32)C1 + Cc1cc([N+](=O)[O-])ccc1NS(=O)(=O)c1cc(Cl)ccc1Cl [FH535] (first compound 0.4 µM, partner dose 1 µM) | 78.6 |
| CCN(CC)CCNC(=O)c1c(C)[nH]c(/C=C2\C(=O)Nc3ccc(F)cc32)c1C [sunitinib] + COC(=O)c1sccc1S(=O)(=O)Nc1ccc(Nc2ccccc2)cc1OC [GSK0660] (first compound 0.4 µM, partner dose 1 µM) | 82.2 |
| Cn1cnc2c(F)c(Nc3ccc(Br)cc3Cl)c(C(=O)NOCCO)cc21 [selumetinib] + COc1cc2c(Oc3ccc4[nH]c(C)cc4c3F)ncnc2cc1OCCCN1CCCC1 [cediranib] (first compound 0.015 µM, partner dose 0.4 µM) | 83.2 |
| Cn1cnc2c(F)c(Nc3ccc(Br)cc3Cl)c(C(=O)NOCCO)cc21 [selumetinib] + COc1cc2ncnc(Nc3ccc(Oc4ccccc4)cc3)c2cc1OC [SrcI1] (first compound 0.015 µM, partner dose 2 µM) | 81.2 |
| Cn1cnc2c(F)c(Nc3ccc(Br)cc3Cl)c(C(=O)NOCCO)cc21 [selumetinib] + NC(=O)Nc1cc(-c2cccc(F)c2)sc1C(=O)N[C@H]1CCCNC1 [AZD7762] (first compound 0.015 µM, partner dose 0.02 µM) | 79.6 |
| COc1cc([C@@H]2c3cc4c(cc3[C@@H](O[C@@H]3O[C@@H]5CO[C@@H](C)O[C@H]5[C@H](O)[C@H]3O)[C@H]3COC(=O)[C@H]23)OCO4)cc(OC)c1O [etoposide] + Cn1cncc1[C@@](N)(c1ccc(Cl)cc1)c1ccc2c(c1)c(-c1cccc(Cl)c1)cc(=O)n2C [tipifarnib] (first compound 0.02 µM, partner dose 0.01 µM) | 85.7 |
| CCN(CC)CCNC(=O)c1c(C)[nH]c(/C=C2\C(=O)Nc3ccc(F)cc32)c1C [sunitinib] + O=C(CCCCCCC(=O)Nc1ccccc1)NO [vorinostat] (first compound 0.4 µM, partner dose 0.08 µM) | 78.4 |
| COc1cc([C@@H]2c3cc4c(cc3[C@@H](O[C@@H]3O[C@@H]5CO[C@@H](C)O[C@H]5[C@H](O)[C@H]3O)[C@H]3COC(=O)[C@H]23)OCO4)cc(OC)c1O [etoposide] + Cc1cc([N+](=O)[O-])ccc1NS(=O)(=O)c1cc(Cl)ccc1Cl [FH535] (first compound 0.02 µM, partner dose 1 µM) | 95.8 |

system: SkMel5; test: as above; conditions: library dose: low library concentration; 72 h

| SMILES | cell count [%] |
| --- | --- |
| C[C@]1(O)C[C@@H](c2nc(-c3ccc4ccc(-c5ccccc5)nc4c3)c3c(N)nccn32)C1 + CN(NC(=O)CC(=O)NN(C)C(=S)c1ccccc1)C(=S)c1ccccc1 [STA4783] (first compound 0.4 µM, partner dose 0.006 µM) | 77.4 |
| C[C@]1(O)C[C@@H](c2nc(-c3ccc4ccc(-c5ccccc5)nc4c3)c3c(N)nccn32)C1 + NCC(=O)Nc1ccc(-n2nc(C(F)(F)F)cc2-c2ccc3c(ccc4ccccc43)c2)cc1 [OSU03012] (first compound 0.4 µM, partner dose 1 µM) | 83.2 |
| CCN(CC)CCNC(=O)c1c(C)[nH]c(/C=C2\C(=O)Nc3ccc(F)cc32)c1C [sunitinib] + Oc1nc(-c2ccc(C(F)(F)F)cc2)nc2c1CSCC2 [XAV939] (first compound 0.4 µM, partner dose 2 µM) | 72.4 |
| C[C@]1(O)C[C@@H](c2nc(-c3ccc4ccc(-c5ccccc5)nc4c3)c3c(N)nccn32)C1 + CC(C)CCN1c2nc(Nc3cc(F)c(O)c(F)c3)ncc2N(C)C(=O)C1C [BID1870] (first compound 0.4 µM, partner dose 0.2 µM) | 74.2 |
| CCN(CC)CCNC(=O)c1c(C)[nH]c(/C=C2\C(=O)Nc3ccc(F)cc32)c1C [sunitinib] + COc1cc(N2CCC(N3CCN(C)CC3)CC2)ccc1Nc1ncc(Cl)c(Nc2ccccc2S(=O)(=O)C(C)C)n1 [NVP-TAE684] (first compound 0.4 µM, partner dose 0.08 µM) | 87.1 |
| CCN(CC)CCNC(=O)c1c(C)[nH]c(/C=C2\C(=O)Nc3ccc(F)cc32)c1C [sunitinib] + CCc1ccc(CCOc2ccc(CC3SC(=O)NC3=O)cc2)nc1 [pioglitazone] (first compound 0.4 µM, partner dose 2 µM) | 100 |
| C[C@]1(O)C[C@@H](c2nc(-c3ccc4ccc(-c5ccccc5)nc4c3)c3c(N)nccn32)C1 + NC(=O)Nc1cc(-c2cccc(F)c2)sc1C(=O)N[C@H]1CCCNC1 [AZD7762] (first compound 0.4 µM, partner dose 0.02 µM) | 76.1 |
| C[C@]1(O)C[C@@H](c2nc(-c3ccc4ccc(-c5ccccc5)nc4c3)c3c(N)nccn32)C1 + c1cc(-c2cnn3cc(-c4ccc(OCCN5CCCCC5)cc4)cnc23)ccn1 [Dorsomorphin] (first compound 0.4 µM, partner dose 0.4 µM) | 61.8 |
| COc1cc([C@@H]2c3cc4c(cc3[C@@H](O[C@@H]3O[C@@H]5CO[C@@H](C)O[C@H]5[C@H](O)[C@H]3O)[C@H]3COC(=O)[C@H]23)OCO4)cc(OC)c1O [etoposide] + COc1cc(N2CCC(N3CCN(C)CC3)CC2)ccc1Nc1ncc(Cl)c(Nc2ccccc2S(=O)(=O)C(C)C)n1 [NVP-TAE684] (first compound 0.02 µM, partner dose 0.08 µM) | 90.8 |
| CCN(CC)CCNC(=O)c1c(C)[nH]c(/C=C2\C(=O)Nc3ccc(F)cc32)c1C [sunitinib] + CCCCCCCCCCCC1=C(O)C(=O)C=C(O)C1=O [Embelin] (first compound 0.4 µM, partner dose 1.2 µM) | 106 |
| Cn1cnc2c(F)c(Nc3ccc(Br)cc3Cl)c(C(=O)NOCCO)cc21 [selumetinib] + CO[C@@H]1[C@H](N(C)C(=O)c2ccccc2)C[C@H]2O[C@]1(C)n1c3ccccc3c3c4c(c5c6ccccc6n2c5c31)C(=O)NC4 [Midostaurin] (first compound 0.015 µM, partner dose 0.08 µM) | 118 |
| COc1cc([C@@H]2c3cc4c(cc3[C@@H](O[C@@H]3O[C@@H]5CO[C@@H](C)O[C@H]5[C@H](O)[C@H]3O)[C@H]3COC(=O)[C@H]23)OCO4)cc(OC)c1O [etoposide] + NC(=O)Nc1cc(-c2cccc(F)c2)sc1C(=O)N[C@H]1CCCNC1 [AZD7762] (first compound 0.02 µM, partner dose 0.02 µM) | 108 |
| Cn1cnc2c(F)c(Nc3ccc(Br)cc3Cl)c(C(=O)NOCCO)cc21 [selumetinib] + Oc1nc(-c2ccc(C(F)(F)F)cc2)nc2c1CSCC2 [XAV939] (first compound 0.015 µM, partner dose 2 µM) | 88.2 |
| CCN(CC)CCNC(=O)c1c(C)[nH]c(/C=C2\C(=O)Nc3ccc(F)cc32)c1C [sunitinib] + NC(=O)Nc1cc(-c2cccc(F)c2)sc1C(=O)N[C@H]1CCCNC1 [AZD7762] (first compound 0.4 µM, partner dose 0.02 µM) | 97.5 |
| C[C@]1(O)C[C@@H](c2nc(-c3ccc4ccc(-c5ccccc5)nc4c3)c3c(N)nccn32)C1 + O=S(=O)(c1ccccc1)N(CC(F)(F)F)c1ccc(C(O)(C(F)(F)F)C(F)(F)F)cc1 [T0901317] (first compound 0.4 µM, partner dose 1.4 µM) | 86.9 |
| CCN(CC)CCNC(=O)c1c(C)[nH]c(/C=C2\C(=O)Nc3ccc(F)cc32)c1C [sunitinib] + COc1cc(Nc2ncc(F)c(Nc3ccc4c(n3)NC(=O)C(C)(C)O4)n2)cc(OC)c1OC [Tamatinib] (first compound 0.4 µM, partner dose 0.4 µM) | 108 |
| C[C@]1(O)C[C@@H](c2nc(-c3ccc4ccc(-c5ccccc5)nc4c3)c3c(N)nccn32)C1 + COc1cc2c(Oc3ccc4[nH]c(C)cc4c3F)ncnc2cc1OCCCN1CCCC1 [cediranib] (first compound 0.4 µM, partner dose 0.4 µM) | 80.3 |
| C[C@]1(O)C[C@@H](c2nc(-c3ccc4ccc(-c5ccccc5)nc4c3)c3c(N)nccn32)C1 + COc1cc2ncnc(Nc3ccc(Oc4ccccc4)cc3)c2cc1OC [SrcI1] (first compound 0.4 µM, partner dose 2 µM) | 103 |
| CCN(CC)CCNC(=O)c1c(C)[nH]c(/C=C2\C(=O)Nc3ccc(F)cc32)c1C [sunitinib] + OCCn1cc(-c2cnc3nnn(Cc4ccc5ncccc5c4)c3n2)cn1 [PF04217903] (first compound 0.4 µM, partner dose 1 µM) | 114 |
| Cn1cnc2c(F)c(Nc3ccc(Br)cc3Cl)c(C(=O)NOCCO)cc21 [selumetinib] + N#Cc1c(O)c2c(-c3ccc(-c4ccccc4O)cc3)csc2[nH]c1=O [A769662] (first compound 0.015 µM, partner dose 2 µM) | 122 |
